Source: PubChem BioAssay (NCI)
Values joined by “and” are separate entries in the source; they are usually repeats but may differ in a detail not shown here. Equal entries are not always repeated.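 Following 48 hours of exposure in 96-well plates, responses at five concentrations were used to interpolate endpoints linearly. GI50: concentration for 50% inhibition of growth. TGI denotes the concentration required for complete inhibition of growth.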

System: NCI-H322M lung
Assay: inhibition of tumour cell growth, NCI panel, 48 h

Compound	TGI	GI50 [µM]
Cc1c(CCCl)c(N=[N+]=[N-])n2c(nc3ccccc32)c1C#N	9.43 µM	–
CCN(CC)C(=S)SC1CCOP(=O)(N(CCCl)CCCl)N1C (centres undefined)	> 100 µM	–
CSc1ccc2c(cc1=O)C(NC(=O)c1ccc(OC(C)=O)cc1)CCc1cc(O)c(O)c(O)c1-2 (centres undefined)	50 µM	–
CC1=C(c2cc(C(=O)Nc3ccc(Cl)c(Cl)c3)nc(N)n2)Sc2ccccc2N1	> 100 µM	–
O=C1/C(=C\c2coc3ccccc3c2=O)c2ccccc2N1c1c(Cl)cccc1Cl	> 100 µM	5.85
O=C1Nc2ccccc2Nc2nc3cccccc-3c21	> 100 µM	–
CC[C@H](C)n1cc(C)c2c(C(=O)NCc3c(C)cc(C)[nH]c3=O)cc(-c3ccc(N4CCNCC4)nc3)cc21	29.1 µM and 30 µM	15.7
Cc1cc(C(=O)N2CCN(Cc3ccccc3)CC2)c(C)o1	> 100 µM	–
N#Cc1c(-c2ccccc2)cc(-c2ccccc2)n(CCCCC(=O)NO)c1=O	38.2 µM	15.5
CCn1c(=O)ccc2ccc(N(CCO)CCO)nc21	> 100 µM	–
CNc1ccc(-c2cc(=O)oc3ccc(Cl)cc23)cc1	–	0.558
Cc1nc2ccccc2c(=O)n1NC(=O)c1ccccc1O	> 100 µM	–
Nc1ncnc2c1ncn2C1CCC(CO)O1 (centres undefined)	> 100 µM	–
O=C1c2ccccc2-c2c1c1ccccc1c(=O)n2CCCN1CCN(CCCn2c3c(c4ccccc4c2=O)C(=O)c2ccccc2-3)CC1	> 100 µM	> 100
Cc1cc2c(cc1C)[n+](=O)c(C(=O)N1CCN(c3ccc([N+](=O)[O-])cc3)CC1)c(C)n2[O-]	> 100 µM	–
CCOC(=O)c1cc(C(=O)c2cc(OC)cc(OC)c2)n2ncc3ccccc3c12	> 100 µM	2.24
COc1cc2c(cc1OC)C1(c3ccccc3)CN(C2)Cc2cc(OC)c(OC)cc21	> 100 µM	–
O=C1C2CCC(C2)C12CC1(c3ccccc3)C(=O)c3ccccc3N1O2 (centres undefined)	> 100 µM	–
O=C(O)C1c2ccccc2C(C(=O)O)c2ccccc21 (centres undefined)	> 100 µM	–
COc1ccc(-c2cc(/C=C3\C(=O)Nc4ccc(OC)cc43)[nH]n2)cc1	> 100 µM	> 100
CN1c2ccccc2S(=O)(=O)n2c(COc3ccc(Cl)cc3)nnc21	> 100 µM	–
CC1(C)C[C@H]2C=C(C=O)[C@]34C[C@]3(C(=O)OC4O)[C@H]2C1 (some centres undefined)	50.6 µM	–
C=C1C(=O)O[C@@H]2C[C@@H]1CC[C@@]1(C)O[C@@H]1CC[C@@]1(C)O[C@@H]1CC[C@@]2(C)O	> 100 µM	48.1

Compound	TGI	GI50 [µM]
Cc1ccccc1N=Nc1c(O)[nH]c2ccccc12	> 100 µM	–
C/C(=C\CCc1ccoc1)CC/C=C(\C)CCCN1CCC(CO)CC1	19.9 µM	6.01
Nc1ccccc1NC(=O)c1ccc(CN2CCC/C(=C\c3cccc(Cl)c3)C2=O)cc1	> 100 µM	0.525
O=C(c1cccs1)c1c(C(F)(F)F)n([O-])c2ccc(F)cc2[n+]1=O	4.06 µM	1.88
CC12CC[C@H](O)C(C)(C)[C@H]1CC[C@](C)(O)C2COc1ccc2ccc(=O)oc2c1 (some centres undefined)	> 100 µM	–
COc1ccc(N2C(=O)/C(=C\c3cccc(Oc4ccccc4)c3)S(=O)(=O)C2c2ccccc2)cc1 (centres undefined)	> 100 µM	–
COc1cccc(C2C3=C(COC3=O)N(CCO)c3cc4c(cc32)OCCO4)c1 (centres undefined)	> 50 µM	0.482
N#CC(C#N)=C(N)/C(C#N)=C/c1cc(O)c(O)c(Br)c1	> 100 µM	–
Cn1cc(C[C@@H](N)C(=O)O)c2ccccc21	> 100 µM	–
COc1ccc(-c2nn(-c3cccc(NC(=O)Nc4cc(C(F)(F)F)cc(C(F)(F)F)c4)c3)cc2-c2ccncc2)cc1Cl	10.3 µM	1.87
COC(=O)Nc1nc2cc3c(cc2s1)OCCO3	> 50 µM	> 50
CCCC(=O)OC[n+]1cccc(-c2c(COC(=O)NC(C)C)c(COC(=O)NC(C)C)c3n2CCC3)c1	> 100 µM	–
C#CCNC(=O)CC[C@]1(C)[C@H]2CC[C@@H]3[C@@H]([C@@](C)(O)CCC=C(C)C)CC[C@@]3(C)[C@]2(C)CC[C@H]1C(=C)C	> 100 µM	> 100
COc1ccc(/C=C\c2cc(OC)c(OC)c(OC)c2)cc1OC(=O)c1cccc(Cn2cc(CCOC(=O)c3cccc(Cn4nnc5c4C(=O)c4ccccc4C5=O)c3)nn2)c1	> 100 µM	0.0541
CCCCN(CCCC)CCCN=c1nc2c(c(N)n1-c1ccccc1)c(=S)n(-c1ccccc1)c(=S)n2-c1ccccc1	3.82 µM	1.69
CC1(C)C2CCC3(OCCO3)C1C1OC12 (centres undefined)	> 100 µM	–
CN(C)CCN=Cc1c2ccccc2c(=O)n2c1oc1ccccc12	17.1 µM	5.27
CC(C)CC(=O)NC(NC(C)C)(C(F)(F)F)C(F)(F)F	> 100 µM	–
CC1=C[C@]2(CC(C)C3C(CC4(C)C5CCC6C(C)(C)C(=O)CC[C@@]67C[C@@]57CC[C@]34C)O2)OC1=O (some centres undefined)	> 100 µM	–
O=C(OCC12CC3CC(CC(C3)C1)C2)c1ccc(NCc2cc(O)ccc2O)cc1	21.6 µM	–
CCc1c(Cl)nc(Cl)nc1Cl	3.52 µM	–
CN(c1ccccc1)C1C(=O)N(c2ccccc2)C1/C=C/c1ccccc1 (centres undefined)	> 100 µM	–
COc1cc([C@@H]2c3cc4c(cc3[C@@H](O[C@@H]3O[C@@H]5CO[C@@H](c6cccs6)O[C@H]5[C@H](O)[C@H]3O)[C@H]3COC(=O)[C@H]23)OCO4)cc(OC)c1O	> 100 µM	4.21
